The whole screen tested about 360,000 compounds, of which about 7,500 (2.1%) were called active. Inconclusive results (about 20%) are left out. Calls come from the whole dose curve; as a rule, active = well fitted inhibition curve with a large enough effect; inconclusive = small, poorly fitted or top-dose-only effect, or effect the other way; inactive = flat fitted curve, though single readings scatter. This is a selection; strong and weak results do not stand in their true shares.
assay: Nrf2 qHTS screen for inhibitors; settings: A549 ARE-Fluc reporter, luciferase luminescence, 18-24 h; series mostly up to 46 µM; activity change, negative = inhibition: at the top concentration; note: nearly all actives have a fitted effect of over 60% in size
Outline: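 Reporter: ARE-Fluc in A549. Exposure: 18-24 h, 37 °C, 5% CO2, 5% FBS OPTI-MEM. Readouts: fluorescent cytotoxicity (CellTiter-Fluor), then luminescent Nrf2 signal after BugLite.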
% is set by controls: 0 for no effect and ±100 for the full control effect; potency is the fitted concentration of half-maximal effect.

Compound | activity change, negative = inhibition | Potency
NC(=O)N1c2ccccc2C=Cc2ccccc21 | inactive: -7.07% | –
C/C(=N/Nc1ccc(C(=O)c2c(C)cc3ccccn23)cc1[N+](=O)[O-])c1ccc(O)cc1 | inactive: 12.2% | –
CCn1c(SCC(=O)N/N=C/C=C/c2ccccc2[N+](=O)[O-])nnc1-c1ccccc1 | inactive: 5.6% | –
Cc1nc(-c2ccc(S(=O)(=O)N3CCN(Cc4ccccc4)CC3)s2)cs1 | – | active: 16.4 µM
CN1C(c2ccc(F)cc2)=CS/C1=C(/C#N)c1nnc2n1-c1ccccc1SC2 | inactive: -26.9% | –
N#Cc1ccc(NC(=O)Nc2ccc(Cl)cc2)cc1 | – | active: 18.4 µM
CCC(CC)C(=O)Nc1nnc(S(=O)(=O)N2c3ccccc3CC2C)s1 (stereo not given) | inactive: 2.07% | –
CCOC(=O)Cn1c(=O)oc2cc(S(=O)(=O)NC(C)c3ccccc3)ccc21 (stereo not given) | inactive: 17% | –
COc1cc(NC(=O)C(=O)Nc2ccc3nc4n(c(=O)c3c2)CCCCC4)cc(OC)c1OC | inactive: -21.6% | –
CCOC(=O)/C(=C/C=C/c1ccccc1)NC(=O)c1ccccc1 | inactive: -10.3% | –
CCc1cccc(NC(=O)C2CCCN(S(=O)(=O)c3cccs3)C2)c1 (stereo not given) | inactive: -25.2% | –
COc1ccc(C(CC(=O)N2CCCCC2)c2c(O)cc(OC)cc2OC)cc1 (stereo not given) | inactive: 3.94% | –
CN(C[C@H](Cc1ccccc1)N(C[C@H](Cc1cccc2ccccc12)N(CCc1ccccc1)N=O)N=O)N=O | inactive: 7.52% | –
C[C@H](NC(=O)c1nc[nH]c1C(=O)N[C@@H](C)c1ccccc1)c1ccccc1 | inactive: 2.1% | –
CCOC(=O)C1=C(CN2CCN(c3ccccc3F)CC2)NC(=O)NC1c1ccc(Cl)cc1 (stereo not given) | – | active: 20.6 µM
COc1ccc(OCC(=O)Nc2nnc(S(=O)(=O)N3CCCCCC3)s2)cc1 | inactive: -3.35% | –
CCc1ccccc1NC(=O)C1=CC(c2ccc(OC)c(OC)c2)=NS(=O)(=O)N1C | inactive: 6.06% | –
CCO[C@H]1OC(C(=O)N2CCN(Cc3ccccc3)CC2)=C[C@@H](c2coc3ccccc3c2=O)[C@@H]1CCCO | inactive: -4.8% | –

Compound | activity change, negative = inhibition | Potency
COc1ccc(-c2cc(C)no2)cc1S(=O)(=O)NCc1ccc(OC(C)C)cc1 | inactive: 12.9% | –
COc1cc(NC(=O)c2cc(-c3ccc4c(c3)OCO4)on2)cc(OC)c1OC | inactive: -8.86% | –
Cn1c(=O)n(CC(=O)O)c(=O)c2c1nc1n2CCS1 | inactive: -4% | –
CCOC(=O)[C@@H]1[C@H]2COc3ccc(Br)cc3[C@H]2N2C(=O)N(c3ccc(OC)cc3)C(=O)[C@]12C | inactive: -11.4% | –
C=CCC[C@@H](Cc1ccc(F)cc1)C(=O)OC[C@@H](Cc1c[nH]c2ccccc12)NC(=O)[C@H](CC=C)CC(=O)N(CCO)Cc1ccccc1 | – | active: 23.1 µM
COC(=O)[C@H](C)[C@H]1C[C@]1(C)[C@H](NC(=O)OCc1ccccc1)c1ccccc1 | inactive: 3.66% | –
COc1ccc(OC2CCN(S(=O)(=O)c3cccc(F)c3)CC2)cc1 | inactive: -15% | –
C=CCC[C@H](Cc1ccc(F)cc1)C(=O)OC[C@@H](Cc1c[nH]c2ccccc12)NC(=O)[C@@H](CC=C)CC(=O)NCCO | inactive: -17.7% | –
CC(C)(C)OC(=O)C[C@H]1C/C=C\C[C@@H](CC(=O)N(CCO)Cc2ccccc2)C(=O)NC[C@@H](c2ccccc2)OC1=O | inactive: 10% | –
O=C(NC(Nc1nc2ccc([N+](=O)[O-])cc2s1)(C(F)(F)F)C(F)(F)F)c1cccnc1 | – | active: 5.8 µM
Cc1cccc(OCC(=O)Nc2nnc(S(=O)(=O)N3CCCCCC3)s2)c1 | inactive: -2.48% | –
CN(Cc1nccn1C)C(=O)c1cc(COc2ccc3ncccc3c2)on1 | – | active: 20.6 µM
CCN1C(=O)[C@@H]2[C@@H](c3ccc(-c4ccc(C(C)=O)cc4)c(OC)c3)N3CCCC[C@@]3(C(=O)OC)[C@@H]2C1=O | inactive: 0.126% | –
CCOC(=O)N1C(=O)[C@](CC)(c2ccccc2)N1C(=O)OCC | inactive: -4.45% | –
Cc1ccc(-n2ncc3c(SCc4cccnc4)ncnc32)c(C)c1 | – | active: 4.11 µM
CCOc1ccc(NS(=O)(=O)c2c(C)nc3sc(CC)nn3c2=O)cc1 | inactive: -5.07% | –
CC(=O)OCC(=O)C1(O)CCC2C3CC(F)C4=CC(=O)CCC4(C)C3C(O)CC21C (stereo not given) | – | active: 0.0651 µM

From PubChem BioAssay AID504444 (National Center for Advancing Translational Sciences (NCATS), 2011)
